Data on 72 sequences can be found in publication PMC10726135.

The other results are listed elsewhere or left out. At the low end of the ranking the order means little. Measured with an extract: partners may take part in the binding.

The target in the assay is T1, HNF4alpha8 (COS-7 nuclear extract) (UniProt P41235-5).
T1 sequence: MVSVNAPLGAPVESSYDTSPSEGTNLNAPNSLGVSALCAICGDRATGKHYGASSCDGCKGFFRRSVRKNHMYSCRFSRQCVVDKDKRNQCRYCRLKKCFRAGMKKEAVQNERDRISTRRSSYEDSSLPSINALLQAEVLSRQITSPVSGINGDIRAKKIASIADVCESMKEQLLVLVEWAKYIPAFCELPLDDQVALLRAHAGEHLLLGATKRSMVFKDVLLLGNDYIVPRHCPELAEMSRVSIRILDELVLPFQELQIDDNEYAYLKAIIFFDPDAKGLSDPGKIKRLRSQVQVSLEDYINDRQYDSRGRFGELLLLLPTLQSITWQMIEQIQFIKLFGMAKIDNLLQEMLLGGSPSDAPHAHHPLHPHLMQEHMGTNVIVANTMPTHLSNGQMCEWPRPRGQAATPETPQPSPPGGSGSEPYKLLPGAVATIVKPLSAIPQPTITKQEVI
The assay is described as follows: protein-binding microarray. Conditions: COS-7 nuclear extract on double-stranded Agilent 4x180k PBM; binding buffer, salt, pH and temperature not given; high values mean tight binding; double strand, one strand shown; sequences stand for … in …GCCTAGGGAGATTAGAGTATCGGTCGA
With TGGGAGATATATGAGGGGTGTAAACCTGGT, the binding signal (log2 normalized intensity) turned out to be 0.0482.

With TGAAGCTCTCTTTGTGAAATGGGACCCAAC, the binding signal (log2 normalized intensity) came out at 1.46.

Regarding GGCGCTTATCTGAGCACACACTCACGGACC, the binding signal (log2 normalized intensity) was -1.49.

Consider AGCCTCATCTGAGATAAGGCAAGTCCCTTC, for which the binding signal (log2 normalized intensity) was -1.39.

Take ACCCCCATTCTTCCTGGTATCAGAGTGGAG: the binding signal (log2 normalized intensity) was found to be 1.16.

With GGAGATGAGTGGGTTCACTTTGAGCAAGAT, the binding signal (log2 normalized intensity) was 0.386.

As to AAACTATGCATGCTGTGTGTGTGTGTGTGT, the binding signal (log2 normalized intensity) was 3.05.

Turning to AGATAAGATAGCACCAGCCCATTAATCAAG, the binding signal (log2 normalized intensity) was -1.22.

With CAGCGCTTTGGTAGGCTGTATGGCTGCACA, the binding signal (log2 normalized intensity) was -1.32.

Take AAGCTTGGTATGCTTAAGTGGCTCACCCAA: the binding signal (log2 normalized intensity) was -1.19.

As for ACCCAAATCAAAGTAACAAGAGGCAAAGGC, the binding signal (log2 normalized intensity) is -1.29.

With CTAAATTAGATATGGCTTATACTTGAGGTA, the binding signal (log2 normalized intensity) is -0.932.

For CCCGAGTGAGGCAATGCCTCGCCCTGCTTC, the binding signal (log2 normalized intensity) was -1.33.

As for GACACCAGGGAACACACCATGTACAGAGAG, the binding signal (log2 normalized intensity) was -1.3.

For GAATGAAACGGATGCAAAGGCTGAGCCCTT, the binding signal (log2 normalized intensity) was -1.34.

For ATCATTGTGCAACCTGGACATTGGCTGATA, the binding signal (log2 normalized intensity) turned out to be 2.57.

Take AGGTGTTTCAGATGGACCAAAGGTCTTGTA: the binding signal (log2 normalized intensity) came to 3.58.

Turning to CACTGATAAGTCTGCTTGCCATTAATGAAA, the binding signal (log2 normalized intensity) was -1.06.

For GACCTGTCTTCCTGGTGACCTTTGTTTGGT, the binding signal (log2 normalized intensity) stood at 5.66.

In the case of AACAAGTAAAATGAGCAAACAGAACTGTTA, the binding signal (log2 normalized intensity) was -1.39.

Take AGGAATGTTCATTCATTCACCTTTCGCCCT: the binding signal (log2 normalized intensity) was found to be 3.68.

As for TGGCCTTGCTTTTCACAGTCGATCTTTGAC, the binding signal (log2 normalized intensity) worked out at 2.98.

As for TCTTTTCTAAGACATAACACAGGTGACCTT, the binding signal (log2 normalized intensity) stood at 4.48.

As to TCCTTTCCTCCTATGTCAATAGAGCATGAG, the binding signal (log2 normalized intensity) is -0.106.

For the sequence TAAGGTGTTGAAAAGAGCATAAGGTTTCCA, the binding signal (log2 normalized intensity) is -1.28.

AAGCAAACAAAACACGGACTTTGAAGCTCC: the binding signal (log2 normalized intensity) is 3.

Regarding GTCAATAGTTGTGTAAATAGCTCAGGGACT, the binding signal (log2 normalized intensity) was -1.3.

Regarding GTCCACACATTCCTAGACCTTTGACCTTTA, the binding signal (log2 normalized intensity) is 8.88.

Take AATCTGCATCCCCAAGCTGTTATTCCAGGC: the binding signal (log2 normalized intensity) was 2.02.

As to AGGTCAAAATATCTGATCGATATCCTAACC, the binding signal (log2 normalized intensity) came out at 0.179.

As to TGCTGGTCAGGAGACTGCTCGGCATCCCTG, the binding signal (log2 normalized intensity) was -1.31.

Turning to AGAGGTCGTGTCTCCATTCAGCATTGCTTG, the binding signal (log2 normalized intensity) was -0.914.

Take GGGGGGAGACAACTGCAACAGGAGGACCTC: the binding signal (log2 normalized intensity) is -1.32.

Turning to CTCGAGATAACCCACCTCCGGCCGGGAAGA, the binding signal (log2 normalized intensity) worked out at 0.392.

On to GAAAGGAAGATGCACATTCCCTCCAGCAGG, for which the binding signal (log2 normalized intensity) is -1.32.

With CAGCTGCAGGTGTGGGGGCGGCAGGAGCCA, the binding signal (log2 normalized intensity) is -1.25.

Regarding CAGGAATGCCTTTTCTTTCATGTTGTTTAG, the binding signal (log2 normalized intensity) turned out to be 1.7.

For the sequence ATAAGGGAGTTTCAGAGGACTGCCCAGCTG, the binding signal (log2 normalized intensity) was -1.26.

Consider CTGGTTGACACTCGAGGATCAGAGACACGA, for which the binding signal (log2 normalized intensity) was -1.32.

As to TACTGTCTTTTTGCCACTAGGGGTCACTGT, the binding signal (log2 normalized intensity) is 4.57.

In the case of AGACAACCTGGGTGTAGGTGCTGCACCTTG, the binding signal (log2 normalized intensity) is 1.21.

CAAGGGCAACTCTAATAGCACAGATCACAT: the binding signal (log2 normalized intensity) is -0.972.

Turning to AATGGATCCACTCAGTATGGCAACCTTTGT, the binding signal (log2 normalized intensity) was 4.13.

With GAGCTCCTTGTGAGCAGGATTATAGTTTAT, the binding signal (log2 normalized intensity) turned out to be 0.267.

For ACAGTTAGAAGTACTAGATTTGGAACTCAG, the binding signal (log2 normalized intensity) is -0.00311.

As for CAGGGTTCACATAGCCACCAGGGCCTCTGA, the binding signal (log2 normalized intensity) was -1.33.

In the case of CTTGGCACTTAGCACAAGTGACTATTCTGG, the binding signal (log2 normalized intensity) was 0.0244.

Turning to CAAGGCCTACCTTGGGTTCTCACTATCACC, the binding signal (log2 normalized intensity) is -0.925.

For the sequence TAAAGTCACAAAGGTGGAACTCAAGATAGT, the binding signal (log2 normalized intensity) was -0.957.

Consider GTGTGTATGAAAGGCCACCAGGTGGAGTCT, for which the binding signal (log2 normalized intensity) worked out at 0.964.

As to AGGTACTGGTAGCCTGGGCCCCAGGGGACG, the binding signal (log2 normalized intensity) was -0.625.

With CTTTCCTAGACGTAAGACAACATCTGGTGT, the binding signal (log2 normalized intensity) was determined as 1.14.

As for TCCCTATGTTGTCCCTGCCCTTTGTCCAGG, the binding signal (log2 normalized intensity) amounted to 4.72.

Take AAATCCAAAGGGCATCAGCCCCAATGGCTA: the binding signal (log2 normalized intensity) is -0.66.

Turning to GAGATAACTGGGGGCATAGCCCATGCAAAT, the binding signal (log2 normalized intensity) was -1.32.

Consider GTGAGATGGCTCAGCCTGGCTGTGTAGACA, for which the binding signal (log2 normalized intensity) was -1.39.

Take CGGGAGGGAGAGAAGGACATCTATCATTTT: the binding signal (log2 normalized intensity) is -1.32.

On to TTTTGTTTAGGAAGAGATCAAAGTTCTGTT, for which the binding signal (log2 normalized intensity) is 3.66.

Consider GACATCTGGAAATGTTTGTAGGGACTTTGA, for which the binding signal (log2 normalized intensity) turned out to be 5.1.

As to CCTGCCGGCGGCGCAGACGGCGGATCCTCC, the binding signal (log2 normalized intensity) was -1.37.

As to TACGTTTCTTTCATGTCATAGTAAATCCAC, the binding signal (log2 normalized intensity) was found to be 1.03.

As for ACAGATAAACCCCTGGAGCACAGAAGGAGG, the binding signal (log2 normalized intensity) is -1.41.

For TAACTCCTTTGTGTGAATCGACCTTTAGCA, the binding signal (log2 normalized intensity) came to 6.42.

Regarding CTTCCAGTATCTTAGCCAAAGAGAAGCCTA, the binding signal (log2 normalized intensity) was -1.31.

As for TGGACATTGGCCCTTTGACCTTTAATCAAG, the binding signal (log2 normalized intensity) was 7.21.

As for CCACCGTGGTGTAGAGGCCCTGCAGGGCCC, the binding signal (log2 normalized intensity) is -1.24.

Turning to ATCTACCCTTGACAATTCCTATTCATTCCC, the binding signal (log2 normalized intensity) amounted to 0.122.

In the case of CTTCCTGAATGCCTAGGTGACAAGGAAAAC, the binding signal (log2 normalized intensity) was -1.2.

With AGAGGAGGGGGCAGGAGCCCAAGAAGCGTC, the binding signal (log2 normalized intensity) was -1.29.

As for AGGCCACTCCTGATAGCTAGAGAGTTCAAG, the binding signal (log2 normalized intensity) was determined as 0.377.

In the case of ACCTTTATCTGATCAGAAATGTTTGGAATT, the binding signal (log2 normalized intensity) stood at 1.84.

On to CCCCTGCATGAACCTTTGCTCCCTGGGAAC, for which the binding signal (log2 normalized intensity) was found to be 4.71.
